# The whole screen tested about 150,000 compounds, of which about 540 (0.36%) showed an effect of 50% or more. The list shows a part of the results.
# System: Plasmodium falciparum
# Test: Primary screen in NF54 nanoGlo assay, in single point, at 2uM, 72h; a lower Z score goes with more inhibition
# Type: functional, Erythrocyte
# Conditions: timepoint 72 hour
Compound,% Inhibition,Z score
N#Cc1cccc(CN2CCn3nnc(-c4nc(-c5ccsc5)no4)c3C2=O)c1,7%,-0.91
CC(NCc1ccc2c(c1)OCCO2)C(C)n1cccn1 (centres undefined),-13%,1.96
N#Cc1nc(NCCCOC2CCOCC2)ccc1Cl,-15%,2.08
Cc1nc(C)c2c(n1)O[C@@H](CN(C)Cc1c(C)nn(C)c1C)C2,-11%,1.88
O=C(c1cnc2ccccc2n1)N1CCN(Cc2csc(-c3ccco3)n2)CC1,2%,-0.22
CNc1nc2c(c(C(=O)N3CCCC3)n1)CN(c1ncnc3c1CCC3)CC2,-8%,1.15
CN(C)c1ccc(-c2nc([C@H]3CCOC3)cs2)cc1,36%,-0.78
Clc1ccccc1[C@H]1C[C@@H](c2cccs2)Nc2nnnn21,-4%,0.41
O=C(NCc1cc(C2CC2)on1)c1ncccc1O,5%,-0.94
CCCN(Cc1c(-c2ccccc2)noc1N(C)Cc1ccccc1)C[C@H](O)COCC,-2%,0.3
C[C@H]1c2cccn2CCN1CC(=O)NCC(F)(F)F,-21%,2.1
CC(=O)N1CCc2cc(S(=O)(=O)N3CCC(CC(=O)N4CCc5ccccc54)CC3)ccc21,-18%,1.69
O=C(CCC(=O)N1CCC(O)CC1)N[C@@H]1C[C@H]1c1c(F)cccc1Cl,16%,-2.08
O=C(NC[C@H]1OC[C@@H](N(Cc2cccs2)Cc2cccs2)[C@@H]1O)c1ccccc1,-10%,1.34
COc1cc(OC)c(-c2nc(-c3cccc4ccccc34)c(-c3ccccc3)[nH]2)cc1OC,-8%,1.07
O=C(c1c[nH]nn1)N1CCC[C@H](C(F)(F)F)C1,-3%,0.45
CC(C)c1cnc(-c2ccc(NC(=O)NCC(=O)N(C)C)cc2)o1,6%,-1.05
CC(C)(O)[C@@H]1CCCN1c1ncc(C(F)(F)F)s1,-7%,1.04
CCC(C)CC(NC(=O)c1ccn(C)n1)C(=O)OC (centres undefined),-2%,0.32
NC(CN1CCC(O)CC1)=NOCC=Cc1ccccc1,-15%,1.54
C#C[C@](C)(CC)NC(=O)Nc1ccc(F)cn1,-7%,1.13

Compound,% Inhibition,Z score
CCn1ccnc1Cn1cnc(-c2ccccc2)c1-c1c(OC)cccc1OC,-4%,0.7
O=C(NC1CCCCCCC1)c1occc1-c1ccccc1,-6%,1.09
Cc1ccc(C[C@H](NC(=O)Cc2c(C)noc2C)c2ccccn2)cc1,-9%,1.09
CCOC1CC(N(C)C(=O)NCCOC)C12CCCC2 (centres undefined),-11%,1.47
CC[C@H](C)N(CCC(=O)Nc1nnc(-c2cccc(Cl)c2)s1)C(=O)c1ccc(C(F)(F)F)cc1,-18%,1.95
CC(C)CCOC(=O)C[C@@H]1NCCNC1=O,34%,-3.86
Cc1ccc(-c2csc(-c3c(-c4ccccc4)noc3C)n2)cc1,7%,-0.91
Cc1c(Cl)cnn1CC(=O)N1CCC(C(=O)N2CCCC2)CC1,-9%,1.3
NC(=O)N1CCC[C@H](C(=O)N2CCN(c3ccccc3Cl)CC2)C1,1%,-0.08
O=C(NC1CC1)c1cccc(C(=O)N[C@H](C2CCC2)C2CC2)c1,0%,-0.05
O=C1N[C@]2(CCOC2)C(=O)N1CCOc1c(Cl)cccc1Cl,2%,-0.22
CCN(C(=O)CCn1c(=O)cc(C(F)F)c2c(C)n(CC)nc21)c1ccccc1,27%,-3.03
Cn1cc(C#N)cc1C(=O)NC1CCCCC1,5%,-0.71
CCc1nncn1CCNC(=O)NCC[C@H]1CCc2ccccc21,-12%,1.54
CCc1cccc(C)c1N1C[C@@H](C(=O)N(C)Cc2ncc[nH]2)CC1=O,16%,-2.24
Cc1ccc(-n2nccc2NC(=O)[C@H]2CCC(=O)N2C)nn1,-3%,0.37
CCNC(=O)COc1cccc(NC(=O)C2=NN(c3ccc(F)cc3)C(=O)CC2=O)c1,-5%,0.75
C[C@H](NC(=O)c1cnnn1-c1ccccc1)c1n[nH]c(N)n1,-15%,2.3
CN(C)CC(=O)N1CCN(C(=O)C2CC(OCc3ccccc3)C2)CC1 (centres undefined),-8%,1.07
Cc1ccc2c(c1)C(NC(C)CCn1cccn1)CO2 (centres undefined),-2%,0.24
N#Cc1ncn(CN2CCN(c3ccc(F)cc3)CC2)n1,28%,-3.15
